# Measurements as given in PubChem BioAssay AID463173 (ICCB-Longwood Screening Facility, Harvard Medical School, 2010).
# The campaign covered roughly 52,000 compounds. About 1,700 (3.3%) were called active. Cut-off read from the data, not from the text of the source: active = survival mostly below about 52% (no sharp cut-off); inactive = mostly above about 56%. The list shows a part of the results.
# Tested on: Wild type
# Test: growth inhibition of S. aureus wild type versus tarO mutant, primary screen, teichoic acid synthesis inhibitors, RN4220, OD600 (AID 463173)
# Conditions: S. aureus RN4220 wild type/DeltatarO growth, OD600, 18 h, active compounds read low, screened at 18.75 µg/mL (by protocol)
row,SMILES,survival
1,CCOC(=O)Cc1ccc(NC(=O)N(C(C)C)C2CCN(C(C)=O)CC2)cc1,inactive: 85%
2,COC(=O)c1sccc1S(=O)(=O)N1CCN(c2ccc(C(C)=O)cc2)CC1,inactive: 111%
3,COc1ccc(Cl)cc1NC(=O)Cn1nnc(C(=O)NCc2ccc3c(c2)OCO3)c1N,inactive: 81%
4,Cc1ccc(-c2cc(C(=O)Nc3c(C(=O)c4ccc(C)c(F)c4)oc4ccccc34)no2)cc1,inactive: 93%
5,CCOCCc1nn2c(=O)cc(COC(=O)c3cccc(C)c3)nc2s1,active: -6%
6,Cc1ccc(C)c(N2CCN(C(=O)C3CCCN(S(=O)(=O)c4cccc5nonc45)C3)CC2)c1 (stereo unspecified),inactive: 77%
7,CCOC(=O)c1c(NC(=O)CSc2cn(CCNC(=O)c3c(F)cccc3F)c3ccccc23)sc2c1CCCC2,inactive: 69%
8,Cc1ccc(Cn2c(CN3CCC(C(=O)NCC(C)c4ccccc4)CC3)cc3ccccc32)cc1 (stereo unspecified),inactive: 132%
9,CC(=O)c1ccc(NC(=O)c2cc(C3CC3)nc3c2c(C)nn3-c2ccc(C)cc2)cc1,inactive: 64%
10,COc1ccc(S(=O)(=O)NCCc2sc(-c3ccccc3)nc2C)cc1F,inactive: 72%
11,Cc1ccc(Cl)cc1N1CCN(S(=O)(=O)c2ccc(-c3cnc(C4CC4)o3)cc2)CC1,inactive: 68%
12,Cc1nnc(Nc2ccc(C(=O)O)cc2)[nH]c1=O,inactive: 113%
13,O=C(Cn1cc(S(=O)(=O)N2CCN(c3ccccc3F)CC2)c2ccccc2c1=O)Nc1ccc(F)cc1Cl,inactive: 129%
14,COc1cc2c(C(=O)N3CCN(c4cc(Cl)ccc4C)CC3)cn(CC(C)C)c(=O)c2cc1OC,inactive: 73%
15,CC(C)c1ccc(NC(=O)c2ccc(F)c(S(=O)(=O)N3CCN(c4ccccc4F)CC3)c2)cc1,inactive: 111%
16,O=C(Nc1ccccc1F)C(Cc1ccccc1)N1Cc2ccccc2C1=O (stereo unspecified),inactive: 75%
17,CC(C)c1ccc(NC(=O)CN2C(=O)CCc3cc(S(=O)(=O)N4CCOCC4)ccc32)cc1,inactive: 68%
18,Cc1ccc(C(C(=O)NC2CCCC2)N(C(=O)Cn2nnc3ccccc32)c2cnc3ccccc3c2)o1 (stereo unspecified),inactive: 117%
19,COc1ccc(C(=O)N2CCN(C(=O)COc3ccc(C)cc3)CC2)cc1OC,inactive: 77%
20,COc1ccc(NC(=O)CN2CCN(c3ccccc3F)CC2)c(OC)c1,inactive: 69%
21,CN(C(=O)CSc1nnc2c3ccccc3n(C)c2n1)C1CCCCC1,inactive: 95%
22,CCCOc1ccc(-c2cccc(NS(=O)(=O)c3ccc(CC)cc3)c2)nn1,inactive: 69%

row,SMILES,survival
1,CCCSCCCNC(=O)CN1C(=O)CCn2nc(-c3cn(C)c4ccccc34)cc21,inactive: 98%
2,CCOC(=O)c1ccc2nc(C)c(CC)c(Cl)c2c1,inactive: 105%
3,CCC(C)NC(=O)CCC(=O)NNc1nc2ccccc2c2nc(C)nn12 (stereo unspecified),inactive: 134%
4,CCC1=C(c2ccc(C)cc2)S(=O)(=O)N=C1N1CCC(C(=O)NCc2ccc(C)cc2)CC1,inactive: 81%
5,Cc1ccc(C(=O)/C=C/c2cn(CC(O)CN3CCCCCC3)c3ccccc23)cc1 (stereo unspecified),active: 28%
6,Cc1ccc(NC(=O)CSc2nccn2Cc2ccc3c(c2)OCO3)c(C)c1,inactive: 91%
7,Cc1cc(C)c(NC(=O)CN(C)S(=O)(=O)c2ccc3c(c2)c(=O)n(C)c(=O)n3C)c(C)c1,inactive: 82%
8,Cc1ccc(-c2nn3c(=O)cc(CN4CCN(C(=O)c5ccc(C(C)(C)C)cc5)CC4)nc3s2)cc1,inactive: 80%
9,CCc1ccc(S(=O)(=O)n2ccnc2)cc1,inactive: 66%
10,COCCn1c(=NC(=O)c2ccc3c(c2)OCCO3)sc2cc(NC(C)=O)ccc21,inactive: 71%
11,O=C(Nc1ccc(F)cc1F)N1CCc2c(sc3c2CCCC3)C1c1ccc(F)cc1 (stereo unspecified),inactive: 74%
12,COc1cc(NS(=O)(=O)c2ccc(NC(=O)c3ccc(OC)c(Br)c3)cc2)nc(OC)n1,inactive: 88%
13,Cc1onc(-c2ccccc2)c1C(=O)N1CCOCC1,inactive: 115%
14,CCc1cccc(NC(=O)C(Cc2ccccc2)NS(=O)(=O)c2ccc3c(c2)c(=O)n(C)c(=O)n3C)c1 (stereo unspecified),inactive: 68%
15,COc1ccc(-c2nc3sc(CCNS(=O)(=O)c4c(C)cc(C)cc4C)c(C)n3n2)cc1,active: -3%
16,COc1cc(Cl)c(C)cc1Nc1nnc(-n2nc(C)cc2C)c2ccccc12,inactive: 153%
17,Cc1cc(SCC(=O)Nc2nsc(-c3ccc(C(C)(C)C)cc3)n2)nc2ccccc12,active: 7%
18,COc1cccc(N2CCN(C(=O)c3c4c(nc5ccccc35)C(=O)N(C3CCCCC3)C4)CC2)c1,inactive: 88%
19,CN(C)CCSc1nnc(-c2ccccc2)o1,inactive: 103%
20,COc1ccccc1OCC(=O)N/N=C1/SCC(=O)N1Cc1ccccc1,inactive: 106%
21,COc1ccc(OCc2nc(C#N)c(NCc3ccccc3Cl)o2)cc1,inactive: 44%
22,COc1cccc(NC(=O)C2CCCN2S(=O)(=O)c2ccc3nc(-c4ccccc4)[nH]c3c2)c1 (stereo unspecified),inactive: 57%

row,SMILES,survival
1,COc1ccccc1N1CCN(S(=O)(=O)c2ccc(-n3cnnn3)cc2)CC1,inactive: 93%
2,CCOC(=O)N1CCc2c(sc3c2c(=O)n(-c2ccc(CC)cc2)c(=O)n3Cc2cccc(OC)c2)C1,inactive: 80%
3,CC(=O)Nc1cccc(NC(=O)Cc2csc(COc3cccc(C)c3)n2)c1,inactive: 90%
4,COc1ccc(NS(=O)(=O)c2ccc3c(c2)NC(=O)CCS3)c(OC)c1,inactive: 64%
5,CCOc1ccc(C2c3c(oc4cc(C)c(C)cc4c3=O)C(=O)N2c2ccccn2)cc1 (stereo unspecified),inactive: 70%
6,CCC(C(=O)Nc1cc(C)ccc1OC)n1nnc(C(=O)OC)c1C(=O)OC (stereo unspecified),inactive: 89%
7,CCc1ccc(S(=O)(=O)N(C(C)=O)c2ccc3oc4c(c3c2)CCCC4)cc1,inactive: 105%
8,CCOc1ccc(C(=O)Nc2ccc3c(c2)N(C(C)=O)CCC3)cc1OCC,inactive: 97%
9,Cc1ccc(-n2nc3c(N4CCC(C(=O)N(C)Cc5ccccc5)CC4)nnc(C)c3c2C)cc1,inactive: 97%
10,Cc1ccc(C)c(S(=O)(=O)n2nc(C)c(S(=O)(=O)N3CCC(C)CC3)c2C)c1,inactive: 51%
11,CC(=O)N1c2ccc(S(=O)(=O)NCC3CCC(C(=O)Nc4cc(C)cc(C)c4)CC3)cc2CC1C (stereo unspecified),inactive: 124%
12,CN(C)c1ccc(CN(Cc2ccco2)C(=O)c2ccc(F)cc2)cc1,inactive: 97%
13,Cc1ccc(-n2cnc3ccccc3c2=O)cc1C,inactive: 89%
14,O=C(NCCN1CCCCC1)c1ccc(Cn2c(SCc3ccc(F)cc3)nc3cccnc32)cc1,inactive: 90%
15,COc1ccc(C(=O)Nc2nc3nc(C)c(Cl)c(=O)n3[nH]2)cc1,inactive: 89%
16,Cc1oc(-c2ccccc2Cl)nc1CS(=O)(=O)CC(=O)NC(C)CCc1ccccc1 (stereo unspecified),inactive: 76%
17,COc1ccc(NC(=O)CC2C(=O)N(c3cccc(OC)c3)C(=O)N2Cc2cccnc2)cc1 (stereo unspecified),inactive: 75%
18,COc1ccc(OC)c(NC(=O)C(NS(=O)(=O)c2ccc3c(c2)CCCC(=O)N3)C(C)C)c1 (stereo unspecified),inactive: 77%
19,Cc1ccc2nc(Cl)c3cc(C(=O)NC4CCCCC4)sc3c2c1,inactive: 76%
20,CN1CCc2nc3sc(C(=O)Nc4c(F)cccc4F)c(N)c3cc2C1,inactive: 155%
21,CCOC(=O)c1ccc(NC(=O)c2nsc3ccccc23)cc1,inactive: 79%
22,CCOC(=O)c1cc(S(=O)(=O)N2CCN(c3cc(Cl)ccc3C)CC2)[nH]n1,inactive: 120%

row,SMILES,survival
1,Cc1ccc(-c2cnc(NCc3c(F)cccc3Cl)n2C)cc1,active: -12%
2,CCOc1ccc(NC(=O)Cn2c(=O)c(CNc3ccc(OC)cc3)cc3ccc(OC)cc32)cc1,inactive: 78%
3,Cc1nc(-c2cccc(S(=O)(=O)N3CCC(C(=O)NCc4ccccc4)CC3)c2)no1,inactive: 120%
4,Cc1cc(=O)n2nc(N3CCC(C(=O)NCc4ccccc4Cl)CC3)sc2n1,inactive: 93%
5,CCc1ccc(OCC(=O)Nc2c(C(=O)c3ccccc3)oc3ccccc23)cc1,inactive: 65%
6,CN(C)c1ccc(C(C(=O)NCC2CCCO2)N(C(=O)Cn2nnc3ccccc32)c2ccc3c(c2)OCO3)cc1 (stereo unspecified),inactive: 113%
7,CCCN(C(=O)Cn1cnc2sc(C)c(S(=O)(=O)N3CCN(c4ncccn4)CC3)c2c1=O)c1cccc(C)c1,inactive: 119%
8,COC(=O)/C=C1/C(=O)N(C(C)=O)c2ccccc21,inactive: 108%
9,Cc1ccccc1NC(=O)CCc1c(C)nc2c(c1C)c(=O)n(C)c(=O)n2C,inactive: 74%
10,COc1ccc(NS(=O)(=O)c2ccc3c(c2)oc(=O)n3C)cc1Cl,inactive: 82%
11,COc1cccc(NC(=O)c2nnn(Cc3cccc(C(F)(F)F)c3)c2N)c1,inactive: 87%
12,COc1ccc(OC)c(S(=O)(=O)Nc2ccc3[nH]c(=O)[nH]c3c2)c1,inactive: 89%
13,Cc1cccc(CN2C(=O)c3ccccc3S(=O)(=O)c3ccc(C(=O)N4CCCC4)cc32)c1,inactive: 91%
14,Cc1ccc(S(=O)(=O)c2nnn3c2nc(N2CCCCC2)c2sccc23)cc1,inactive: 115%
15,CCN(CC)S(=O)(=O)c1ccc(NC(=O)[C@H](CCSC)N2Cc3ccccc3C2=O)cc1,inactive: 84%
16,CCn1ccc2cc(S(=O)(=O)N3CCCN(C(=O)Nc4ccc(C)cc4)CC3)ccc21,inactive: 45%
17,O=C(Nc1nnc(C2CCCCC2)s1)c1ccc2c(c1)OCO2,inactive: 116%
18,Cc1cccc(Cn2c(-c3cccs3)nc3ccccc32)c1,active: -6%
19,CCOc1ccc(Cn2c(CNS(=O)(=O)c3cccs3)nc3cccnc32)cc1,inactive: 124%
20,Cn1c(=O)c2c(nc(SCC(=O)Nc3ccc(F)cc3)n2Cc2ccc(Cl)cc2)n(C)c1=O,inactive: 61%
